# Laboratory results from publication PMC4336329 (PLoS ONE, 2015).
# Screen size: about 310,000 compounds; about 2,200 (0.71%) showed an effect of 50% or more. The effect is printed as a negative number. The list shows a part of the results.
# Target: human ether-à-go-go-related gene (hERG) potassium channel (human, UniProt Q12809)
# Experiment: primary screen, population patch clamp on CHO cells stably expressing hERG
# human ether-à-go-go-related gene (hERG) potassium channel, sequence (Q12809 whole entry, looked up): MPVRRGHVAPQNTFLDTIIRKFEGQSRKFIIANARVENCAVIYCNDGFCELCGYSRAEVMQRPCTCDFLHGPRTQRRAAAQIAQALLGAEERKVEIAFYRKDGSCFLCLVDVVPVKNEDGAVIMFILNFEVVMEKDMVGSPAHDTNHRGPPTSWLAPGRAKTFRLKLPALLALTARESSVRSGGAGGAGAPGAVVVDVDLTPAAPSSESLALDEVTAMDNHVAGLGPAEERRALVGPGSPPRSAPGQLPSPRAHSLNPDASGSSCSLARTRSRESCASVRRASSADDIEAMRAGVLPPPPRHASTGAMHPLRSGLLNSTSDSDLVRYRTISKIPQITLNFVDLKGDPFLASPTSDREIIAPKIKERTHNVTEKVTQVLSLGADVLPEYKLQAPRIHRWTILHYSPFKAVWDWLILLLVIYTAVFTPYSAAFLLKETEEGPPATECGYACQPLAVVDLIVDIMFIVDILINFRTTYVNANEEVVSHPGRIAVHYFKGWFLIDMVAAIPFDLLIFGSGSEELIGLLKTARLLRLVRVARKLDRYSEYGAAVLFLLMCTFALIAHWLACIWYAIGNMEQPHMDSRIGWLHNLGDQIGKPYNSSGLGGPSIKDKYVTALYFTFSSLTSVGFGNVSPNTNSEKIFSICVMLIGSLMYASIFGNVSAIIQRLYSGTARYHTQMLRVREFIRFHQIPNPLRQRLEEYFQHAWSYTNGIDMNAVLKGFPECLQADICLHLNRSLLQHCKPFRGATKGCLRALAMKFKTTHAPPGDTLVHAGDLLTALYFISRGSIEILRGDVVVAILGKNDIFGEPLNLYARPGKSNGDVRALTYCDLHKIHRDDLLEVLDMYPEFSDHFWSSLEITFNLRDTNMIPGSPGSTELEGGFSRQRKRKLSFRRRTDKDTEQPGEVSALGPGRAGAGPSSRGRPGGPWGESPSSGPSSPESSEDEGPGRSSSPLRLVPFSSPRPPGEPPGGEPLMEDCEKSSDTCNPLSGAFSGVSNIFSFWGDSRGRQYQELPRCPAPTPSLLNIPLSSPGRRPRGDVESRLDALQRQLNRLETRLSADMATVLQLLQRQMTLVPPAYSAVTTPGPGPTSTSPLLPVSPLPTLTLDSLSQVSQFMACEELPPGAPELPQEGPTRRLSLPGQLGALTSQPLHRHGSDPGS
row,SMILES,"hERG current change (%, negative = inhibition) at 1uM [%]"
1,CCOc1ccc(CCNC(=O)Cn2ncn3nc(-c4ccc(OC)cc4)cc3c2=O)cc1,6.1
2,CC(C)(C)c1ccc(OCC(O)CSc2ncn[nH]2)cc1 (centres unmarked),9.31
3,CCCCN(C)/C=N/c1c(C#N)cnn1-c1ccc(C)cc1,-2.79
4,CCn1c(=O)c2c(n3cnnc13)-c1ccccc1CC21CCCCC1,11
5,Cc1ccc(NC(=S)Nc2cccc3ccccc23)cc1F,7.59
6,C=CCNC(=O)C(=O)NCC1CCCN1S(=O)(=O)c1cccs1 (centres unmarked),16.5
7,CNc1csc(C)c(C)c1=O,20.5
8,O=C1CN(C(=O)c2ccc(Br)o2)C(c2ccccc2)c2cc(Br)ccc2N1 (centres unmarked),4.89
9,CCc1ccc(-n2c(Cc3ccccc3)n[nH]c2=S)cc1,1.36
10,CCS(=O)(=O)N1CCC(c2nc(-c3ccc(C)cc3)no2)CC1,-0.656
11,Cc1cccc(NC(=O)C2C(c3ccccc3)C2(Cl)Cl)c1 (centres unmarked),9.25
12,COc1ccc(-c2cc(C(=O)NCC3CCCO3)c3ccccc3n2)c(OC)c1 (centres unmarked),10.5
13,Cc1ccc(C)c(NC(=S)N(CCN(C)C)C(C)c2ccccn2)c1 (centres unmarked),-0.601
14,COC(=O)C1=C(c2ccc(OC(F)(F)F)cc2)C[C@@H]2CC[C@H]1N2C(=O)NCCOc1ccccc1Cl,11.4
15,Cl.OCCN1CCN(c2nc(NCc3ccco3)c3ccccc3n2)CC1,-39.4
16,O=C(CSc1ccc2nnc(-c3cccc(F)c3)n2n1)NCc1ccco1,-37.2
17,CCN(CC)CC(C)(C)NS(=O)(=O)c1ccc(Cl)cc1,5.99
18,CCc1c(C2(O)CCCCC2)[nH]c2ncccc12,11
19,CCOc1cc(C(F)(F)F)cnc1/C(N)=N/O,15.4
20,Cc1ccc(/C=N/Nc2nc(C)cc(C)n2)cc1,11.6

row,SMILES,"hERG current change (%, negative = inhibition) at 1uM [%]"
1,Cc1c(C(=O)Nc2ccc(N3CCOCC3)cc2)oc2ccccc12,12.3
2,COc1cccc(N(CC(=O)NC2CCCCCC2)S(=O)(=O)c2ccccc2)c1,12.1
3,CC12CCC(C(=O)N(c3cccc(Cl)c3)C1=O)C2(C)C (centres unmarked),4.37
4,Cn1c(=O)c(=O)n(C)c2cc(S(=O)(=O)N3CCOc4ccccc43)ccc21,0.459
5,CCCCCC[n+]1c(-c2ccccc2)csc1Nc1ccccc1.[Br-],1.91
6,COc1ccc(N(Cc2cc3ccc(C)cc3[nH]c2=O)C(=O)C2CCCO2)cc1 (centres unmarked),3.6
7,CCOC(=O)CCc1c(C)n(CC)c2ncnn2c1=O,8.01
8,COc1ccc(OC(C)C(=O)N(C)Cc2nc(-c3ccc(OC)cc3)no2)cc1 (centres unmarked),-2.83
9,COc1cc(OC)cc(C(=O)N2CCN(C(=O)c3ccc(OC)c(OC)c3)CC2)c1,-2.4
10,COc1ccc(NC(=O)c2cccc3ccccc23)cc1,2
11,COc1ccc(CC(=O)Nc2ccc(S(=O)(=O)Nc3nccs3)cc2)cc1,2.74
12,CC1C2CC(C/C2=N/NC(=O)c2cccs2)C1(C)C (centres unmarked),-2.51
13,CCOc1ccc(NC(=O)C2CCCN2S(=O)(=O)c2ccc(OCC)cc2)cc1 (centres unmarked),27.9
14,CC(C)NC(=O)c1n[nH]c(=O)c2ccccc12,3.37
15,O=c1c(-c2ccnn2-c2ccccc2F)cnc2n1CCS2,1.93
16,Cc1cc(/C=C2\SC(=O)NC2=O)c(C)n1-c1ccc(N(C)C)cc1,8.8
17,COc1cc(C(=O)NCCOC(=O)c2cccc(N(C)C)c2)cc(OC)c1OC,1.61
18,O=C(Nc1cc(S(=O)(=O)N2CCCCCC2)ccc1OCC(F)(F)F)c1cnccn1,10.8
19,O=c1cc(O)nc(-c2ccccc2)s1,19.6
20,CCCC(=O)Nc1ccc(N2CCN(S(C)(=O)=O)CC2)cc1,14.3

row,SMILES,"hERG current change (%, negative = inhibition) at 1uM [%]"
1,O=S1(=O)CCO[C@H]2Cc3ccccc3[C@H]2N1Cc1ccc(Cl)cc1,13.9
2,O=C(CN1C(=O)NC2(CCCC2)C1=O)NCCC1=CCCCC1,14.9
3,O=S(=O)(Nc1ccc(-n2cnnn2)cc1)c1cccs1,6.9
4,COc1cccc(NC(=O)CN(C)C(=O)CNC(=O)c2ccc3ccccc3c2)c1,7.31
5,CCOC(=O)N1CCN(Cc2nc(-c3ccccc3)no2)CC1,8.85
6,O=C(c1cn(Cc2ccccc2)nc1-c1ccc(Cl)cc1)N1CCN(c2ccccn2)CC1,-1.17
7,Cc1cccc(CCN=c2c([N+](=O)[O-])nn(-c3ccccc3)n2O)c1,12.5
8,O=C1SCCC1NC(=O)C(c1ccccc1)c1ccccc1 (centres unmarked),8.49
9,Cc1ccccc1NS(=O)(=O)c1c(C(=O)N2CCCCCC2)c(C)n(C)c1C,9.07
10,CC(COS(N)(=O)=O)Cc1ccc(C(F)(F)F)cc1 (centres unmarked),8.1
11,COc1ccccc1/C=C1\C(=O)NC(=S)N(c2ccccc2)C1=O,14.8
12,CC(C)N1CCN(Cc2nc3ccccc3s2)CC1CCO (centres unmarked),-4.26
13,Cc1c(C(=O)NC(C)C)oc2c1-c1[nH]ncc1CC2,11
14,O=C(Nc1cccc(NC(=O)C2CCCO2)c1)C1CCCO1 (centres unmarked),5.51
15,CCn1c(CSCc2ccc(C)cc2)n[nH]c1=S,21.6
16,Cc1ccccc1NC(=O)CSc1nnc2ccc(-c3ccncc3)nn12,-22.8
17,COc1cc(CNCCNC(=O)c2cccs2)cc(OC)c1OC,11.6
18,O=C(Nc1ccc(Br)cc1C(=O)O)c1ccc2c(c1)C(=O)N(Cc1ccccc1)C2=O,7.53
19,Cc1cc([N+](=O)[O-])nn1CC(=O)NCCCN1CCOCC1,7.37
